Reference: ChEMBL document CHEMBL3864165, “Design, synthesis, and AChE inhibitory activity of new benzothiazole-piperazines” (Bioorg Med Chem Lett, 2016)

Tests used:
Conditions in all cases: Electrophorus electricus
[1] = test system: COc1cc2nc(NC(=O)CN3CCN(CCN(C)C)CC3)sc2cc1OC; test: Inhibition of electric eel AChE assessed as enzyme Vmax at 0.0231 uM preincubated for 15 mins followed by acetylthiocholine iodide substrate addition measured for 5 mins by Lineweaver-Burk plot analysis (reference value: 0.60 abs/min)
[2] = test system: COc1cc2nc(NC(=O)CN3CCN(CCN(C)C)CC3)sc2cc1OC; test: Inhibition of electric eel AChE assessed as enzyme Vmax at 0.0462 uM preincubated for 15 mins followed by acetylthiocholine iodide substrate addition measured for 5 mins by Lineweaver-Burk plot analysis (reference value: 0.60 abs/min)
[3] = test system: COc1cc2nc(NC(=O)CN3CCN(CCN(C)C)CC3)sc2cc1OC; test: Inhibition of electric eel AChE assessed as enzyme Vmax at 0.0924 uM preincubated for 15 mins followed by acetylthiocholine iodide substrate addition measured for 5 mins by Lineweaver-Burk plot analysis (reference value: 0.60 abs/min)
[4] = test system: COc1cc2nc(NC(=O)CN3CCN(CCCN(C)C)CC3)sc2cc1OC; test: Inhibition of electric eel AChE assessed as enzyme Vmax at 0.0288 uM preincubated for 15 mins followed by acetylthiocholine iodide substrate addition measured for 5 mins by Lineweaver-Burk plot analysis (reference value: 0.60 abs/min)
[5] = test system: COc1cc2nc(NC(=O)CN3CCN(CCCN(C)C)CC3)sc2cc1OC; test: Inhibition of electric eel AChE assessed as enzyme Vmax at 0.0576 uM preincubated for 15 mins followed by acetylthiocholine iodide substrate addition measured for 5 mins by Lineweaver-Burk plot analysis (reference value: 0.60 abs/min)
[6] = test system: COc1cc2nc(NC(=O)CN3CCN(CCCN(C)C)CC3)sc2cc1OC; test: Inhibition of electric eel AChE assessed as enzyme Vmax at 0.1152 uM preincubated for 15 mins followed by acetylthiocholine iodide substrate addition measured for 5 mins by Lineweaver-Burk plot analysis (reference value: 0.60 abs/min)
[7] = test system: COc1cc2nc(NC(=O)CN3CCN(CCN(C)C)CC3)sc2cc1OC; test: Inhibition of electric eel AChE assessed as enzyme Km at 0.0231 uM preincubated for 15 mins followed by acetylthiocholine iodide substrate addition measured for 5 mins by Lineweaver-Burk plot analysis (reference value: 1.23 mM)
[8] = test system: COc1cc2nc(NC(=O)CN3CCN(CCN(C)C)CC3)sc2cc1OC; test: Inhibition of electric eel AChE assessed as enzyme Km at 0.0462 uM preincubated for 15 mins followed by acetylthiocholine iodide substrate addition measured for 5 mins by Lineweaver-Burk plot analysis (reference value: 1.23 mM)
[9] = test system: COc1cc2nc(NC(=O)CN3CCN(CCN(C)C)CC3)sc2cc1OC; test: Inhibition of electric eel AChE assessed as enzyme Km at 0.0924 uM preincubated for 15 mins followed by acetylthiocholine iodide substrate addition measured for 5 mins by Lineweaver-Burk plot analysis (reference value: 1.23 mM)
[10] = test system: COc1cc2nc(NC(=O)CN3CCN(CCCN(C)C)CC3)sc2cc1OC; test: Inhibition of electric eel AChE assessed as enzyme Km at 0.0288 uM preincubated for 15 mins followed by acetylthiocholine iodide substrate addition measured for 5 mins by Lineweaver-Burk plot analysis (reference value: 1.23 mM)
[11] = test system: COc1cc2nc(NC(=O)CN3CCN(CCCN(C)C)CC3)sc2cc1OC; test: Inhibition of electric eel AChE assessed as enzyme Km at 0.0576 uM preincubated for 15 mins followed by acetylthiocholine iodide substrate addition measured for 5 mins by Lineweaver-Burk plot analysis (reference value: 1.23 mM)
[12] = test system: COc1cc2nc(NC(=O)CN3CCN(CCCN(C)C)CC3)sc2cc1OC; test: Inhibition of electric eel AChE assessed as enzyme Km at 0.1152 uM preincubated for 15 mins followed by acetylthiocholine iodide substrate addition measured for 5 mins by Lineweaver-Burk plot analysis (reference value: 1.23 mM)

## Acetylcholinesterase (Electrophorus electricus) (chain not printed)
[1]
  Vmax: 0.46 abs/min
[2]
  Vmax: 0.37 abs/min
[3]
  Vmax: 0.31 abs/min
[4]
  Vmax: 0.47 abs/min
[5]
  Vmax: 0.4 abs/min
[6]
  Vmax: 0.39 abs/min
[7]
  Km: 1270 µM
[8]
  Km: 1190 µM
[9]
  Km: 1150 µM
[10]
  Km: 1280 µM
[11]
  Km: 1250 µM
[12]
  Km: 1380 µM
